PMC5356852
These are yes or no findings as the source states them, for the method shown. In cells and extracts the contact can be indirect. Some binding calls cover weakened binding; strength is not graded here. Sequences can lack the tags named with a protein.

T1: FLAG-MTA3 (UniProt Q9BTC8)
T1 sequence: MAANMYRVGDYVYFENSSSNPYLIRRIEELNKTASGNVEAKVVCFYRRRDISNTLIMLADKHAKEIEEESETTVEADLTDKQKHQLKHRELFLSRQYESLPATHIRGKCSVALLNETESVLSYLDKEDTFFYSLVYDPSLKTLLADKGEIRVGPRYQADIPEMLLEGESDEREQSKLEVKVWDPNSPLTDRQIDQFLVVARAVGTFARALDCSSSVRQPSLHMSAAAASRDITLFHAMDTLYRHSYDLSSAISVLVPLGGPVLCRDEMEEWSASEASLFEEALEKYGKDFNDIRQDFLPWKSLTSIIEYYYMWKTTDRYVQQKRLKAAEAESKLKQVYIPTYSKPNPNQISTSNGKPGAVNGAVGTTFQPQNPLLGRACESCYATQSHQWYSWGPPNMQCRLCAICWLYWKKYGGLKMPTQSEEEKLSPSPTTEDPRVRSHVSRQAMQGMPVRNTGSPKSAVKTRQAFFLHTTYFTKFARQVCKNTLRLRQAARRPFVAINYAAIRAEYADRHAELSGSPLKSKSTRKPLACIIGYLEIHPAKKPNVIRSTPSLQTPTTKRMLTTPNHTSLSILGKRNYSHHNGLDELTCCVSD


What was measured:
[1] = target: Myc-MTA1, wild type (human) (UniProt Q13330); test: co-IP; HEK293T transfected with HIC1 and Myc-MTA1 vectors (wt or mutants); lysates immunoprecipitated with anti-c-myc antibodies (MTA1); blot anti-HIC1; Figures 5B-5D ('similar' experiments)
[2] = target: endogenous MTA1 proteins of HEK293T cells (human (endogenous in HEK293T)) (UniProt Q13330); test: co-IP; HEK293T transfected with wt or ΔMKHEP FLAG-HIC1; total extracts immunoprecipitated with anti-MTA1 antibodies (endogenous MTA1); blots MTA1 and FLAG
[3] = target: Myc-MTA1 AAA (I711A/V712A/I713A), SIM-deficient mutant (human) (UniProt Q13330); test: co-IP; HEK293T transfected with HIC1 and Myc-MTA1 vectors (wt or mutants); lysates immunoprecipitated with anti-c-myc antibodies (MTA1); blot anti-HIC1; Figures 5B-5D ('similar' experiments)
[4] = target: Myc-MTA1 K509R, non-SUMOylatable mutant (human) (UniProt Q13330); test: as above
FLAG-MTA3 = target: T1, FLAG-MTA3; test: co-IP; HEK293T transfected with FLAG-HIC1 and FLAG-MTA3; 16 hours 20 μM etoposide or DMSO; lysis in IPH buffer; IP with anti-MTA3 antibodies; blot anti-FLAG

binding [1] | binding [2] | binding [3] | binding [4] | binding (FLAG-MTA3) | Binder
binds weakly | binds weakly |  |  |  | FLAG-HIC1 ΔMKHEP deletion mutant (amino acids 305-326 deleted) (protein, UniProt Q14526-2) MLDTMEAPGHSRQLLLQLNNQRTKGFLCDVIIVVQNALFRAHKNVLAASSAYLKSLVVHDNLLNLDHDMVSPAVFRLVLDFIYTGRLADGAEAAAAAAVAPGAEPSLGAVLAAASYLQIPDLVALCKKRLKRHGKYCHLRGGGGGGGGYAPYGRPGRGLRAATPVIQACYPSPVGPPPPPAAEPPSGPEAAVNTHCAELYASGPGPAAALCASERRCSPLCGLDLSKKSPPGSAAPERPLAERELPPRPDSPPSAGPAAYKEPPLALPSLPPLPFQKLEEAAPPSDPFRGGSGSPGPEPPGRPDGRERGSPSERCEERGGDAAVSPGGPPLGLAPPPRYPGSLDGPGAGGDGDDYKSSSEETGSSEDPSPPGGHLEGYPCPHLAYGEPESFGDNLYVCIPCGKGFPSSEQLNAHVEAHVEEEEALYGRAEAAEVAAGAAGLGPPFGGGGDKVAGAPGGLGELLRPYRCASCDKSYKDPATLRQHEKTHWLTRPYPCTICGKKFTQRGTMTRHMRSHLGLKPFACDACGMRFTRQYRLTEHMRIHSGEKPYECQVCGGKFAQQRNLISHMKMHAVGGAAGAAGALAGLGGLPGVPGPDGKGKLDFPEGVFAVARLTAEQLSLKQQDKAAAAELLAQTTHFLHDPKVALESLYPLAKFTAELGLSPDKAAEVLSQGAHLAAGPDGRTIDRFSPT
binds | binds | no binding | binds | binds | FLAG-HIC1 (hypermethylated in cancer 1), wild type, full length (protein, UniProt Q14526-2 1-714) MLDTMEAPGHSRQLLLQLNNQRTKGFLCDVIIVVQNALFRAHKNVLAASSAYLKSLVVHDNLLNLDHDMVSPAVFRLVLDFIYTGRLADGAEAAAAAAVAPGAEPSLGAVLAAASYLQIPDLVALCKKRLKRHGKYCHLRGGGGGGGGYAPYGRPGRGLRAATPVIQACYPSPVGPPPPPAAEPPSGPEAAVNTHCAELYASGPGPAAALCASERRCSPLCGLDLSKKSPPGSAAPERPLAERELPPRPDSPPSAGPAAYKEPPLALPSLPPLPFQKLEEAAPPSDPFRGGSGSPGPEPPGRPDGPSLLYRWMKHEPGLGSYGDELGRERGSPSERCEERGGDAAVSPGGPPLGLAPPPRYPGSLDGPGAGGDGDDYKSSSEETGSSEDPSPPGGHLEGYPCPHLAYGEPESFGDNLYVCIPCGKGFPSSEQLNAHVEAHVEEEEALYGRAEAAEVAAGAAGLGPPFGGGGDKVAGAPGGLGELLRPYRCASCDKSYKDPATLRQHEKTHWLTRPYPCTICGKKFTQRGTMTRHMRSHLGLKPFACDACGMRFTRQYRLTEHMRIHSGEKPYECQVCGGKFAQQRNLISHMKMHAVGGAAGAAGALAGLGGLPGVPGPDGKGKLDFPEGVFAVARLTAEQLSLKQQDKAAAAELLAQTTHFLHDPKVALESLYPLAKFTAELGLSPDKAAEVLSQGAHLAAGPDGRTIDRFSPT
